Among the data in the supplement of paper PMC9446081 are relative growth values, retold here.

Hit rate of the full screen: of about 39,000 compounds, about 220 (0.56%) showed activity. Some of the results follow.
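Also: static incubation at 37 °C against the wild-type strain, values averaged over two biological replicates.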

The test deals with Escherichia coli K-12 BW25113. Kind of test: relative growth (OD600 normalised to plate interquartile mean) (fraction); higher = less growth inhibition, active = 0.2 or less. Conditions: 50 µM; LB; incubation time: overnight (16-24 h).
As for `COc1ccc(S(=O)(=O)Nc2cccc3c2O[C@@H](CN(C)C(=O)NC(C)C)[C@H](C)CN([C@@H](C)CO)C3=O)cc1`, the relative growth was inactive: 1.02.

For `O=C(C[C@@H]1CC[C@H]2[C@@H](COC[C@@H](O)CN2S(=O)(=O)c2ccc(F)cc2)O1)NCc1ccc(Cl)c(Cl)c1`, the relative growth was inactive: 0.882.

`C[C@H]1CCCCO[C@@H](CN(C)Cc2ccccc2)[C@@H](C)CN([C@@H](C)CO)C(=O)c2cc(NS(=O)(=O)c3ccc(Cl)cc3)ccc2O1`: the relative growth is inactive: 0.889.

Consider `COc1ccc(NC(=O)N(C)C[C@H]2Oc3ccc(NC(=O)CCCN(C)C)cc3C(=O)N([C@@H](C)CO)C[C@@H]2C)cc1`, for which the relative growth is inactive: 0.994.

`C[C@@H]1CN([C@@H](C)CO)C(=O)c2cc(-c3cccc(C(=O)N(C)C)c3)cnc2O[C@@H]1CN(C)S(=O)(=O)c1ccc(F)cc1`: the relative growth was inactive: 1.

On to `C[C@H]1CN([C@@H](C)CO)C(=O)c2cc(NS(C)(=O)=O)ccc2O[C@@H]1CN(C)Cc1ccc(C(F)(F)F)cc1`, for which the relative growth is inactive: 1.02.

Consider `COc1cc2nc(N3CCCN(Cc4ccccc4)CC3)nc(NC3CCN(Cc4ccccc4)CC3)c2cc1OC`, for which the relative growth is inactive: 0.916.

As for `COc1ccc(NC(=O)Nc2ccc3c(c2)C(=O)N([C@H](C)CO)C[C@H](C)[C@@H](CN(C)S(=O)(=O)c2cn(C)cn2)O3)cc1`, the relative growth was inactive: 0.983.

For the molecule `CN(C)c1nc2ncnc(N)c2[nH]1`, the relative growth was inactive: 0.936.

As for `C[C@@H]1CN([C@@H](C)CO)C(=O)c2cc(NS(=O)(=O)c3ccc(F)cc3)ccc2O[C@@H](C)CCCCO[C@@H]1CN(C)Cc1ccc(C(F)(F)F)cc1`, the relative growth was inactive: 0.992.

As to `CCOCCn1c(N2CCCN(C)CC2)nc2ccccc21.O=C(O)C=CC(=O)O.O=C(O)C=CC(=O)O`, the relative growth was inactive: 1.11.

Turning to `Cc1nccn1CC1CCc2c(c3ccccc3n2C)C1=O.Cl` (stereo not given), the relative growth was inactive: 0.98.

For `Cc1ccc(S(=O)(=O)N(C)C[C@H]2OCCCC[C@H](C)Oc3ccc(NC(=O)Nc4ccc5c(c4)OCO5)cc3C(=O)N([C@@H](C)CO)C[C@H]2C)cc1`, the relative growth is inactive: 1.02.

For `COc1ccc([C@H]([C@H](Cc2ccccc2)OC(C)=O)N(C[C@H](/C=C/c2ccccc2)CC(=O)N(C)C)[C@@H](Cc2ccccc2)C(OC)OC)cc1`, the relative growth was inactive: 0.953.

In the case of `Nn1c(Cn2ccnc2)nnc1Cn1ccnc1`, the relative growth is inactive: 0.874.

Consider `Cc1ccccc1-c1ccc2c(c1)O[C@@H](CN(C)C(=O)Nc1ccc(C(F)(F)F)cc1)[C@H](C)CN([C@H](C)CO)S2(=O)=O`, for which the relative growth is inactive: 1.06.

On to `C[C@@H]1CCCCO[C@@H](CN(C)S(C)(=O)=O)[C@H](C)CN([C@H](C)CO)C(=O)c2cc(NS(=O)(=O)c3ccccc3)ccc2O1`, for which the relative growth is inactive: 0.997.

`Cn1cnc(S(=O)(=O)N2C[C@@H](O)COC[C@H]3O[C@H](CC(=O)NC4CCC4)CC[C@@H]32)c1`: the relative growth was inactive: 1.

For the molecule `O=C(c1ccco1)N1CCNCC1`, the relative growth was inactive: 0.989.

As to `COc1ccc(S(=O)(=O)Nc2cccc3c2O[C@@H](CN(C)C(=O)Nc2c(C)noc2C)[C@@H](C)CN([C@@H](C)CO)C3=O)cc1`, the relative growth was inactive: 0.994.

Regarding `CN(C)CCCNC(=O)C[C@H]1C=C[C@@H](NC(=O)Cc2cccnc2)[C@H](CO)O1`, the relative growth was inactive: 1.02.

For `Cc1ccc(S(=O)(=O)N(C)C[C@H]2OCCCC[C@@H](C)Oc3ccc(NC(=O)Nc4ccc5c(c4)OCO5)cc3C(=O)N([C@H](C)CO)C[C@@H]2C)cc1`, the relative growth is inactive: 0.976.

On to `[O-][n+]1onc2c1CCc1c-2nn(-c2ccccc2)[n+]1[O-]`, for which the relative growth was inactive: 0.984.

`Cc1noc(C)c1NC(=O)N(C)C[C@@H]1OCCCC[C@H](C)Oc2ccc(NC(=O)Cc3ccccc3)cc2C(=O)N([C@@H](C)CO)C[C@@H]1C`: the relative growth is inactive: 0.989.

`COCCNC(=O)C[C@H]1CC[C@H](NS(=O)(=O)c2ccc(C)cc2)[C@H](CO)O1`: the relative growth was inactive: 1.03.

As for `C[C@@H]1CCCCO[C@@H](CN(C)C)[C@H](C)CN([C@@H](C)CO)C(=O)c2cc(NS(=O)(=O)c3cn(C)cn3)ccc2O1`, the relative growth is inactive: 0.976.

As for `CC12CCC3c4ccc(OC(=O)c5ccccc5)cc4CCC3C1CCC2O` (stereo not given), the relative growth is inactive: 1.04.

`C[C@@H]1CN([C@@H](C)CO)C(=O)c2cccc(NC(=O)C3CC3)c2O[C@@H]1CN(C)Cc1ccc(-c2ccccc2)cc1`: the relative growth is inactive: 1.02.

For `O=C(C[C@@H]1C[C@@H]2c3cc(NS(=O)(=O)c4ccc(F)cc4)ccc3O[C@@H]2[C@H](CO)O1)NCCN1CCCCC1`, the relative growth was inactive: 1.05.

On to `Cn1cnc(S(=O)(=O)N[C@H]2CC[C@@H](CC(=O)NCC3CC3)O[C@H]2CO)c1`, for which the relative growth was inactive: 0.999.

Consider `Nc1nc(N2CCC[C@@H](Cn3cc(CO)nn3)C2)c2c[nH]nc2n1`, for which the relative growth was inactive: 0.999.

For `COc1ccc(/C=C/C(=O)O[C@@H]2[C@@H](O)[C@H](C)O[C@@H](O[C@H]3[C@@H]4C=CO[C@@H](O[C@H]5O[C@@H](CO)[C@H](O)[C@@H](O)[C@@H]5O)[C@@H]4[C@@]4(CO)O[C@@H]34)[C@@H]2OC(C)=O)cc1`, the relative growth is inactive: 1.02.

Take `C[C@@H]1CCCCO[C@@H](CN(C)Cc2ccc(C(=O)O)cc2)[C@@H](C)CN([C@H](C)CO)C(=O)c2cc(NC(=O)Nc3ccc(C(F)(F)F)cc3)ccc2O1`: the relative growth was inactive: 0.993.

With `C[C@@H]1CN([C@H](C)CO)S(=O)(=O)c2ccc(Br)cc2O[C@@H]1CN(C)CC1CCOCC1`, the relative growth is inactive: 0.989.

Take `O=C1Nc2ccccc2Oc2cc(Sc3ccccc3)ccc21`: the relative growth was inactive: 1.04.

With `Cc1ccccc1-c1ccc2c(c1)O[C@@H](CN(C)C(=O)Nc1ccc(C(F)(F)F)cc1)[C@@H](C)CN([C@@H](C)CO)S2(=O)=O`, the relative growth is inactive: 0.999.

In the case of `Cc1ccc(S[C@]2(C(=O)NCC(F)(F)F)CC(=O)N(Cc3ccccc3)[C@@H]2c2ccc(CO)cc2I)cc1`, the relative growth is inactive: 0.999.

As to `CC(=O)NCCCC[C@@H]1NC(=O)[C@H]2C[C@@H](C(=O)NCCCC[N+](C)(C)C)[C@@H](c3ccc(O)cc3)N2C1=O`, the relative growth was inactive: 0.987.

On to `CC[C@H]1OC(=O)[C@H](C)[C@@H](O[C@H]2C[C@@](C)(OC)[C@@H](O)[C@H](C)O2)[C@H](C)[C@@H](O[C@@H]2O[C@H](C)C[C@H](N(C)C)[C@H]2O)[C@](C)(O)C[C@@H](C)CN(C)[C@H](C)[C@@H](O)[C@]1(C)O`, for which the relative growth is active: 0.0562.

As to `C[C@H]1CN([C@@H](C)CO)C(=O)c2c(c3ccccc3n2C)-c2ccccc2CO[C@H]1CN(C)Cc1ccccc1`, the relative growth is inactive: 0.971.

`O=c1cccc2[nH][nH]cc1-2`: the relative growth was inactive: 1.02.

For `CC(C)[C@H](NC=O)C(=O)OC[C@H](O)[C@H](O)[C@H](O)[C@H](O)COC(=O)[C@H](NC=O)C(C)C`, the relative growth is inactive: 0.981.

As to `COc1ccc(S(=O)(=O)Nc2ccc3c(c2)C(=O)N([C@H](C)CO)C[C@H](C)[C@@H](CN(C)C(=O)NC2CCCCC2)OCCCC[C@@H](C)O3)cc1`, the relative growth was inactive: 1.

Consider `C[C@H]1CN([C@@H](C)CO)C(=O)Cc2cc(NC(=O)Nc3ccc(F)cc3)ccc2O[C@@H]1CN(C)Cc1ccc(C(F)(F)F)cc1`, for which the relative growth was inactive: 1.07.

Turning to `CC(=O)O`, the relative growth is inactive: 1.01.

Regarding `C[C@@H]1CN([C@@H](C)CO)C(=O)c2cc(C#Cc3cccnc3)cnc2O[C@@H]1CN(C)S(=O)(=O)c1ccccc1F`, the relative growth was inactive: 0.988.

Regarding `C[C@@H]1CCCCO[C@@H](CN(C)C(=O)NC2CCCCC2)[C@H](C)CN([C@@H](C)CO)C(=O)c2cc(NC(=O)Nc3ccc(C(F)(F)F)cc3)ccc2O1`, the relative growth is inactive: 1.02.

Consider `c1ccc(-n2cncn2)c(Cn2cnnc2)c1`, for which the relative growth is inactive: 0.991.

Consider `COc1ccc(S(=O)(=O)N[C@H]2CC[C@@H](CCNC(=O)CN3CCOCC3)O[C@@H]2CO)cc1`, for which the relative growth is inactive: 1.03.

Take `COc1ccc(S(=O)(=O)Nc2ccc3c(c2)C(=O)N([C@H](C)CO)C[C@H](C)[C@H](CN(C)Cc2ccc(Cl)c(Cl)c2)OCCCC[C@H](C)O3)cc1`: the relative growth was inactive: 0.916.

Consider `C[C@H](CO)N1C[C@H](C)[C@@H](CN(C)S(=O)(=O)c2ccc(F)cc2)Oc2ccc(NS(C)(=O)=O)cc2C1=O`, for which the relative growth is inactive: 0.997.

Regarding `C[C@@H]1CCCCO[C@H](CN(C)Cc2ccc(C(=O)O)cc2)[C@@H](C)CN([C@H](C)CO)C(=O)c2cc(NC(=O)Cc3ccccc3)ccc2O1`, the relative growth was inactive: 0.998.

As to `COc1ccc2c3c(n(c2c1)C)[C@@H](CO)N(C[C@]13CCN(CC1)C(=O)c1ccccc1F)C(=O)Nc1ccc(cc1)F`, the relative growth is inactive: 1.03.

Turning to `C[C@@H]1CN([C@@H](C)CO)C(=O)c2cccc(NC(=O)CCCCCC(=O)Nc3ccccc3N)c2O[C@H]1CN(C)C(=O)Nc1cccc2ccccc12`, the relative growth is inactive: 0.982.

Turning to `C[C@@H]1CN([C@H](C)CO)C(=O)c2cccc(NC(=O)Nc3cccc4ccccc34)c2O[C@H]1CN(C)C(=O)Nc1ccccc1`, the relative growth was inactive: 1.05.

Take `O=C(NCCCN1CCOCC1)[C@@H]1[C@@H](CO)[C@@H]2Cn3c(cccc3=O)[C@H]1N2C(=O)C1CCCC1`: the relative growth was inactive: 0.997.

For `C[C@@H]1CN([C@H](C)CO)C(=O)c2cc(NC(=O)CCC(F)(F)F)ccc2O[C@@H](C)CCCCO[C@@H]1CN(C)Cc1ccc(C(=O)O)cc1`, the relative growth is inactive: 1.05.

In the case of `CCOC[C@@H](O)CN`, the relative growth was inactive: 1.03.

Consider `C[C@@H]1CN([C@H](C)CO)C(=O)Cc2cc(NC(=O)CCC(F)(F)F)ccc2O[C@@H]1CN(C)S(=O)(=O)c1ccccc1`, for which the relative growth was inactive: 0.994.

In the case of `C[C@H]1CCCCO[C@H](CN(C)C(=O)Nc2ccc(C(F)(F)F)cc2)[C@@H](C)CN([C@@H](C)CO)C(=O)c2cc(NC(=O)Nc3ccc4c(c3)OCO4)ccc2O1`, the relative growth was inactive: 0.987.
